Source: PubChem BioAssay AID624296 (National Center for Advancing Translational Sciences (NCATS), 2012)
Among all 350,000 compounds or so, about 9,900 (2.8%) were called active. Inconclusive means that the source gave no clear call. Such entries were picked first, then a sample of the others. The call rests on the fitted dose curve; in most records, active means well fitted activation curve with a large enough effect; inconclusive means small, poorly fitted or top-dose-only effect; inactive means no such curve, though single readings can be large or run the other way. Potencies of inconclusive entries are left out as doubtful fits.

Assay: A quantitative high throughput screen for small molecules that induce DNA re-replication in MCF 10a normal breast cells. Further: nearly all actives have a fitted effect of over 50% in size.
Settings: MCF 10A DNA re-replication, Hoechst nuclear intensity, 48 h; series mostly up to 46.1 µM
Potency means the concentration at half of the fitted maximal effect; tags describe the fitted curve by direction and shape.

**Q.** With `CCOc1cc2c(cc1OCC)-n1cccc1C(c1ccc(C)cc1C)NC2` (stereo unspecified) as the molecule, how does the Potency read?
**A.** inconclusive [activator, single point]

**Q.** Which Potency does the source give for `O=c1c2ccccc2nc(/C=C/c2ccccc2F)n1-c1ccccc1O` here?
**A.** inactive

**Q.** Which Potency does the source give for `Cc1cccn2c(=O)c3c(nc12)N1CCC(Cc2ccccc2)CC1C1(C3)C(=O)N(C)C(=O)N(C)C1=O` (stereo unspecified) here?
**A.** inconclusive [activator, single point]

**Q.** With `CN1CCN(C(=O)CCc2ccc(S(=O)(=O)NC3CCCCC3)cc2)CC1` as the molecule, how does the Potency read?
**A.** inconclusive [activator, partial curve]

**Q.** For `Brc1ccc(-c2nnc3sc(CN4CCN(c5ccccc5)CC4)cn23)cc1`, which Potency is on record?
**A.** inactive

**Q.** For `O=C(c1ccoc1)N1CCCC(N2CCN(c3cccc(C(F)(F)F)c3)CC2)C1` (stereo unspecified), which Potency is on record?
**A.** inconclusive [activator, single point]

**Q.** Which Potency does the source give for `COC(=O)C1=C(c2ccc(Cl)c(C(F)(F)F)c2)C[C@@H]2CC[C@H]1N2C(=O)NC1CC1` here?
**A.** inconclusive [activator, single point]

**Q.** Which Potency does the source give for `CCCCn1c(=O)c(C(=O)Nc2ccccc2)c(O)c2ccccc21` here?
**A.** inactive

**Q.** For `Cc1sc(NC(=O)Cn2c(=O)oc3ccccc32)nc1-c1ccc(Cl)cc1`, which Potency is on record?
**A.** inconclusive [activator, single point]

**Q.** Which Potency does the source give for `CC[C@@H](O)C[C@H]1CCC[C@@]2(C[C@@H]3OC(=O)/C=C/[C@@](C)(O)[C@@H](O)[C@H](C)[C@@H](O)[C@H](OC4CCC(N(C)C)C(C)O4)[C@@H](O)[C@](C)(O)CCCCC/C=C/[C@@H]4CC(C)(C)O[C@@]4(O)C[C@H](O2)[C@H]3C)O1` (stereo partly specified) here?
**A.** inconclusive [activator, single point]

**Q.** Which Potency does the source give for `CN1CCC(N(C)c2nc(-c3ccccc3)nc3ccccc23)CC1` here?
**A.** inactive

**Q.** Which Potency does the source give for `O=C1NC(=O)N(Cc2ccc(F)cc2)C(=O)/C1=C/c1cccs1` here?
**A.** inconclusive [activator, single point]

**Q.** For `CCN1C[C@]2(COC)CC[C@H](O)[C@]34C1[C@](O)([C@@H](OC)[C@H]23)[C@@]1(O)C[C@H](OC)[C@H]2C[C@@H]4[C@@H]1[C@H]2OC`, which Potency is on record?
**A.** inconclusive [activator, single point]

**Q.** With `COc1ccccc1CCNC(=O)CCC(=O)N1CC2C[C@@H](C1)Cn1c2cccc1=O` as the molecule, how does the Potency read?
**A.** inactive

**Q.** Which Potency does the source give for `Cc1cc(C=C2C(=O)N(C)C(=S)N(C)C2=O)c(C)n1C1CCCC1` here?
**A.** inconclusive [activator, single point]

**Q.** With `COC(=O)C1=C(c2ccc(F)cc2F)C[C@@H]2CC[C@H]1N2C(=O)N1CCC(O)(c2ccc(Cl)cc2)CC1` as the molecule, how does the Potency read?
**A.** active: 7.31 µM
